# The BET-seq Pho4 binding data (Le et al. 2018)
# The other results are listed elsewhere or left out. Values were computed here from the reads of four pooled replicates and scatter widely.
# Target: T1, Pho4 (S. cerevisiae) (UniProt P07270)
# T1 sequence: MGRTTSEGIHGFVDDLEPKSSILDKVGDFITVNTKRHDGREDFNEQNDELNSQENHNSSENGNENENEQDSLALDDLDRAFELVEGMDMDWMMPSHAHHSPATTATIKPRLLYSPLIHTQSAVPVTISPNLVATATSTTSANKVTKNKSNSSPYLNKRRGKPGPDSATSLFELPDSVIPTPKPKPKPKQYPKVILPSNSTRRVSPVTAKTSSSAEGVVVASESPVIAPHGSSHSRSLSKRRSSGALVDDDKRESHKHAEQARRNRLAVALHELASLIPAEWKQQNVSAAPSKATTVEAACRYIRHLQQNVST
# Assay: relative binding free energy (BET-seq); higher = weaker binding
# Details: reference: library average
row,Sequence,relative binding free energy [kcal/mol]
1,GTTAACACGTGTGGGT,0.11
2,TAGATCACGTGGGGTG,0.01
3,GAAGGCACGTGTATGG,-0.01
4,TGCTGCACGTGGTGGG,-0.07
5,GAATGCACGTGTGGTT,0.16
6,GATGACACGTGGAGTA,0.11
7,GCACGCACGTGAGGGG,0.08
8,TTGATCACGTGGGGCT,0.18
9,GCGTGCACGTGTTAAT,0.14
10,ATCGGCACGTGGGTTT,-0.18
11,GTATACACGTGAGTTT,0.22
12,ACGGTCACGTGGGGCA,0.01
13,TGGCGCACGTGTTCGG,-0.11
14,CGCATCACGTGGTTTG,0.25
15,TAGGTCACGTGGAGTT,0.12
16,TAGGACACGTGGTAGA,-0.07
17,GAAGTCACGTGCGTGT,0.09
18,CGCAGCACGTGTAGGG,0.01
19,GCTGACACGTGGCGTG,-0.06
20,TTGTTCACGTGCTCGT,0.19
21,TTGCTCACGTGGATGT,0.31
22,GGTGACACGTGTCTGG,0.11
23,TTAAACACGTGGGTGT,-0.05
24,TAGGGCACGTGATTTA,-0.06
25,TTTATCACGTGTTCAG,0.12

row,Sequence,relative binding free energy [kcal/mol]
1,AAGAGCACGTGGAGAG,-0.08
2,TATGACACGTGAAGTT,0.32
3,TGGTCCACGTGTATGG,0.12
4,TGTATCACGTGCTATT,-0.13
5,GTAGCCACGTGTAGTG,0.17
6,TGAAGCACGTGGTGGA,0.02
7,TTTGCCACGTGGGTCT,0.02
8,ATCGTCACGTGGTGTT,0.07
9,ACGTGCACGTGAGTGA,0.05
10,TAGCTCACGTGAGGTG,0.32
11,GGAGCCACGTGTATTG,0.19
12,CGCGTCACGTGAGGTG,0.34
13,ACTGTCACGTGAGGTG,0.25
14,TGCTTCACGTGAGGCG,0.34
15,GATTGCACGTGATTTT,0.24
16,ATTAGCACGTGCTTTG,-0.21
17,CGTTTCACGTGCCGGG,0.31
18,TATGTCACGTGCTGGG,0.01
19,TGGGCCACGTGAGCTT,0.17
20,TGGATCACGTGTTGAG,0.15
21,ATGTGCACGTGTCTTA,-0.1
22,GTGTACACGTGAGCTT,0.3
23,GTGCCCACGTGGTTGG,-0.07
24,AAATTCACGTGTTGTC,0.24
25,TTAATCACGTGGGGCG,0

row,Sequence,relative binding free energy [kcal/mol]
1,TAAGGCACGTGTATCG,-0.09
2,CTTTACACGTGGAAGT,0.12
3,TGTAACACGTGTATGT,-0.01
4,AAGGGCACGTGTCTAT,-0.06
5,GGGCACACGTGGTGTA,0.01
6,GTATACACGTGTGTAG,0.01
7,GTGATCACGTGGTGCA,0.02
8,TAAGTCACGTGCGCGT,0.09
9,TCCGGCACGTGTGGGT,-0.04
10,TAAGTCACGTGTAAGG,0.11
11,ATTTGCACGTGCTTTT,-0.09
12,TGTATCACGTGACTTT,0.18
13,GTTGGCACGTGTTGGG,0.05
14,CTTGTCACGTGGCTAG,0.04
15,TTCGTCACGTGGTGTG,0.06
16,TTTTTCACGTGTTGAA,0.26
17,AACGTCACGTGTTGGG,0.13
18,GGCGTCACGTGTTTAA,0.17
19,TGAGACACGTGTAGGT,0.04
20,ATAGTCACGTGTGGCG,0.12
21,TCGGGCACGTGTGGCT,-0.06
22,GTTAGCACGTGTATAT,-0.06
23,GGACTCACGTGGTCGT,0.3
24,AGAGACACGTGCGGGT,-0.19
25,TGTAGCACGTGAGGTC,0.18

row,Sequence,relative binding free energy [kcal/mol]
1,TTATGCACGTGCAGTG,-0.12
2,ATGGGCACGTGGGGTA,-0.31
3,AGTATCACGTGCGAGG,0.02
4,ATGGACACGTGAGGGA,0.17
5,TAAAGCACGTGTGCGG,-0.02
6,GTTGACACGTGGAGGT,0.09
7,GAGATCACGTGAAGGT,0.29
8,ATATGCACGTGCTAGT,-0.14
9,TTAGTCACGTGACTGG,0.19
10,TGGTGCACGTGTGATT,0.19
11,GTGGTCACGTGCGGGA,0.09
12,TTGTTCACGTGAAGGA,0.37
13,GGATTCACGTGCTTTG,0.31
14,GTAGACACGTGTGGAA,0.02
15,GTCGTCACGTGGGTAT,0.04
16,TCTAGCACGTGTGTGC,-0.03
17,TGGTGCACGTGGGCTA,-0.26
18,AATGCCACGTGTGATG,0
19,GTCTGCACGTGGTGTC,0.03
20,TGGGGCACGTGGTCAT,-0.21
21,AGGAGCACGTGGGTTT,-0.2
22,TGTTACACGTGGGGGC,-0.02
23,GAGCTCACGTGTTTTG,0.31
24,GAGGTCACGTGTGTGC,0.07
25,AAATTCACGTGTGAGG,0.4

row,Sequence,relative binding free energy [kcal/mol]
1,CAGGGCACGTGGGCTT,-0.13
2,ATATGCACGTGGTGCG,-0.02
3,AGTGCCACGTGTTGTC,-0.1
4,CGTTGCACGTGGAAGA,0.09
5,TCTTTCACGTGTTCGT,0.13
6,ATAGACACGTGGTTCG,-0.02
7,ATCGTCACGTGTGTCG,0.12
8,CCGTGCACGTGATTGG,0.2
9,CGGGACACGTGAGGTA,0.27
10,ATAATCACGTGGGCGG,0.02
11,GTGTACACGTGATTAT,0.15
12,CCAGTCACGTGAGGGG,0.32
13,GTTGACACGTGCAGGG,-0.04
14,ATTATCACGTGGCTGT,-0.03
15,GTGGTCACGTGACTTA,0.09
16,TATGCCACGTGCTGTT,-0.12
17,AGGTGCACGTGGAGCG,0
18,TGGTGCACGTGGTGGG,-0.01
19,GGATTCACGTGGTCGG,0.39
20,CAGTACACGTGTTTGG,-0.06
21,CAGTGCACGTGGTGGT,-0.15
22,TAGGTCACGTGGCCGG,0.04
23,TTTGTCACGTGTCTTA,0.11
24,TTGGGCACGTGCTCTG,-0.13
25,GTGGGCACGTGGTCGT,-0.12

row,Sequence,relative binding free energy [kcal/mol]
1,TGGTACACGTGACTGT,0.16
2,GCGGACACGTGGTGAG,0.17
3,TGTCACACGTGCTTGG,-0.05
4,TAAGGCACGTGTAGTT,0
5,GTAGGCACGTGATTTT,0.1
6,CAAGGCACGTGGGGAA,-0.17
7,AAGGGCACGTGTAGCT,-0.16
8,AGTCGCACGTGGTGAA,-0.15
9,CGGGCCACGTGGGGGC,-0.31
10,AGATTCACGTGGGAGT,0.15
11,GTGGGCACGTGCGGCA,-0.15
12,TGTCTCACGTGTATTT,0.25
13,CGGTGCACGTGAATTA,0.34
14,TGTTTCACGTGTTGTG,0.27
15,AAATTCACGTGGAGGA,0.23
16,CGGTCCACGTGTGTGG,0.07
17,GAGAGCACGTGTGGTG,0.03
18,GTTAGCACGTGACAGG,0.24
19,ATTATCACGTGGTGTC,0.08
20,GCTCTCACGTGGTGTG,0.07
21,TTATGCACGTGCTTAT,0
